In the supplement of paper PMC3334620:
In all, about 33,000 sequences were measured (“E-score (-0.5 to 0.5)”: median about -0.04, highest 2% from about 0.36 on). This is one part of the list.

The sequences below were run against T1, Hmlalpha2 (UniProt P0CY09) (assay: PBM E-score (8-mer binding enrichment) (E-score (-0.5 to 0.5)); higher = stronger / more preferred TF binding; most listed sequences are background and not binding sites). Conditions: protein concentration: 200 nM; construct: GST-full length.
T1 sequence: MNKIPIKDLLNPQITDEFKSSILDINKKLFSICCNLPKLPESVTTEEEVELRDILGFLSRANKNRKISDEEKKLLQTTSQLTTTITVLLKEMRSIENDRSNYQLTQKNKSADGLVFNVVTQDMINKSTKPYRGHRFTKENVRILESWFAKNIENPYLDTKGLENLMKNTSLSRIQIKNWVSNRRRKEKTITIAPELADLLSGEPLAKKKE
Summary of the method: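 Masliner-normalised scans of fluorescent anti-GST signal were the basis for scoring. That signal came from GST-tagged yeast transcription factors applied at about 100-200 nM to double-stranded universal all-10-mer Agilent arrays on fresh or once-stripped slides. Each ungapped eight-base word, pooled with its reverse complement, received an E-score from the Universal PBM Analysis Suite.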

| Sequence | PBM E-score |
| --- | --- |
| GTGCACCA | -0.0978 |
| ATACTCAG | 0.217 |
| AGAGACCT | -0.0673 |
| CCATGATA | -0.142 |
| TCCCTCAA | -0.239 |
| GCTAGGAC | -0.0406 |
| GATTCGGA | 0.145 |
| ACGTGTCG | 0.308 |
| CATTGGCC | -0.195 |
| ATGGTCGC | 0.0102 |
| CCTACCCA | -0.192 |
| GGATATAA | 0.147 |
| CATCTAGA | -0.19 |
| TGTTAACA | 0.426 |
| ACTTTTAG | -0.0435 |
| CAGCGGGG | -0.331 |
| GATACAAA | 0.264 |
| CATGGTAG | 0.1 |
| AAAGACGT | -0.00312 |
| AAAACGGA | 0.139 |
| CGTATCAC | 0.0589 |
| CATTGTAC | 0.273 |
| GTTTCCTA | 0.0846 |
| ACAGCAAC | 0.141 |
| ATCCTAAG | -0.295 |

| Sequence | PBM E-score |
| --- | --- |
| ACTTCAGC | -0.11 |
| TGTGACAA | 0.0767 |
| GGATTACC | -0.00329 |
| GATAGGAA | -0.227 |
| CTTACCCA | -0.0496 |
| TTCCAGAA | 0.112 |
| CTGCAATA | 0.0256 |
| AGGATCAG | -0.344 |
| GAGATACA | 0.245 |
| AGAACGCT | -0.0269 |
| CCAATACG | 0.175 |
| GACACGGA | 0.224 |
| GACCTACA | 0.0344 |
| AAGAAATT | 0.0903 |
| AAGCGTGG | -0.0995 |
| GCTCTTAC | 0.3 |
| CAACGAGA | 0.109 |
| CCGCGGTA | -0.211 |
| TGCTCAAA | 0.0276 |
| GTACATGA | 0.426 |
| GAGGGTCA | -0.228 |
| TCTAGTCA | -0.0327 |
| CTGGCATA | -0.17 |
| CATAAGCC | -0.0206 |
| CAACGAGG | 0.138 |

| Sequence | PBM E-score |
| --- | --- |
| CACCACGC | -0.221 |
| CGTATGCA | 0.0417 |
| GAAAGCTC | -0.015 |
| CAGCCAGA | -0.228 |
| AGAGAGGC | -0.32 |
| AAAAGAGT | -0.093 |
| CGGGGCCC | -0.132 |
| AATTGTCA | 0.25 |
| AGATTCAA | 0.079 |
| CAATATTG | 0.21 |
| GTAACGAA | 0.186 |
| AACATGCT | 0.396 |
| ACCGATTG | 0.145 |
| TAGACAGA | 0.0404 |
| CCCATACG | -0.164 |
| AAGCATAG | -0.0992 |
| ACAGTTGG | -0.0319 |
| GATGGAAC | -0.067 |
| CATTATAA | 0.00513 |
| AGAGTTAC | 0.0861 |
| GCCTAGTA | -0.0732 |
| AATGTTTG | 0.145 |
| CCCTCCTA | -0.247 |
| AATGCTCT | 0.0455 |
| GCAAATAC | 0.184 |

| Sequence | PBM E-score |
| --- | --- |
| CATCATAC | 0.193 |
| GACTGAGC | -0.152 |
| GGGGTCGA | -0.083 |
| ATTATCGA | -0.00134 |
| ACGAAGCA | 0.0649 |
| ATATCGAG | 0.00282 |
| CGCGACGC | -0.0165 |
| TCAAGCGA | -0.162 |
| CAAGACAC | 0.244 |
| CCGGCGCA | -0.169 |
| CGTACTCA | 0.0663 |
| GGGACAGA | -0.264 |
| GATTACAA | 0.438 |
| ATTGGTCG | -0.00657 |
| CGCTGTGA | -0.121 |
| AGCCGGTA | 0.0743 |
| CCCCCCAG | -0.357 |
| GGCTTGAC | -0.093 |
| ACAATGAA | 0.174 |
| ATGTGTAG | 0.349 |
| GGAGGTAA | 0.0862 |
| GCGATCGC | 0.0724 |
| CTCGTGTA | 0.434 |
| AGAGCTCA | -0.235 |
| ACCTCATA | -0.00874 |

| Sequence | PBM E-score |
| --- | --- |
| AGTGCAAT | 0.00712 |
| CCTCGCGC | -0.101 |
| CGATTTGC | -0.158 |
| CCTAGACA | -0.192 |
| CTCATAAA | 0.0237 |
| ATACCTGA | 0.0295 |
| AGGCCCCG | -0.29 |
| ATCTATGA | -0.101 |
| ATCTAGAG | -0.233 |
| CAGGTGAC | 0.0302 |
| CGGTCCTC | -0.2 |
| CGAAACTA | -0.0366 |
| GGTCATGA | -0.00439 |
| CTTGCGTA | 0.286 |
| AGACGCGA | 0.0871 |
| ACATCCCG | 0.151 |
| ACACGCCG | 0.274 |
| AAGTACTG | 0.0391 |
| GTGCCCGA | 0.0138 |
| AAACACAA | 0.322 |
| AGCAAGAC | 0.0534 |
| AAAAGTAG | 0.0501 |
| AACGGGTA | 0.16 |
| CGGAGGAC | -0.134 |
| AGAGTGAG | -0.0848 |

| Sequence | PBM E-score |
| --- | --- |
| CACCGACA | -0.181 |
| ACTTGTCA | 0.124 |
| ATGGGAAG | -0.248 |
| CGTCCAAA | -0.0415 |
| AGAATCTA | 0.165 |
| AACTTGTG | 0.128 |
| ATTTTAGG | 0.0606 |
| AAACGATA | 0.137 |
| ACGTTCCC | -0.216 |
| ATTAATTG | 0.167 |
| CACACCTC | -0.16 |
| CTGGACAG | -0.261 |
| CCAATAGC | -0.153 |
| ACAGCATC | 0.0898 |
| AATGAGGA | -0.103 |
| ATAGCGTA | 0.189 |
| CTTGCAAG | 0.0532 |
| CTGACGAC | 0.0973 |
| TACCCTGA | -0.104 |
| ATATGTTA | 0.384 |
| ATTGTAAC | 0.221 |
| GCAGGTCC | -0.18 |
| CCAGGACG | 0.0263 |
| ACATGACG | 0.379 |
| CCACGAAC | -0.0118 |

| Sequence | PBM E-score |
| --- | --- |
| CACCACTA | -0.0439 |
| GTAGATAC | 0.167 |
| CGCAGTGA | -0.0678 |
| CAGGACCC | -0.282 |
| TCAAAGGA | -0.126 |
| ACCACAGT | 0.0716 |
| CGCAATGC | 0.108 |
| ATGTTATG | 0.425 |
| GAATCTAC | 0.193 |
| ACCGTTCT | -0.122 |
| CTTAGTTC | 0.0399 |
| AAGACGGC | -0.258 |
| GAGTGCAA | 0.179 |
| CCCCTAGG | -0.399 |
| CGAGAACC | 0.0638 |
| GACAGTAC | 0.0466 |
| GAGAGCAC | -0.213 |
| AAGCTGAG | -0.0274 |
| CCAGACTC | -0.182 |
| GTATGGTA | 0.187 |
| TATAGTCA | 0.0292 |
| CTAAGAGA | -0.0638 |
| ACTAAAAG | -0.0519 |
| GACACGCA | 0.301 |
| GCTAGATA | 0.0187 |

| Sequence | PBM E-score |
| --- | --- |
| AGATCGCG | 0.0722 |
| GCAGAAAC | 0.0971 |
| AAGTTACG | 0.0933 |
| CGAATGAA | 0.043 |
| ATTTCCTG | 0.0368 |
| GAGACCCC | -0.227 |
| GGACAGCA | -0.114 |
| CTTTTGCC | -0.164 |
| AGGCAAGC | -0.124 |
| ATTTTTTC | 0.0391 |
| ATATACTG | 0.0658 |
| CCTGGTCG | -0.104 |
| CCAAGTAG | -0.0346 |
| CGTCCCTA | -0.0903 |
| CTGGCTGC | -0.289 |
| CATGATAC | 0.225 |
| CGAGATTC | -0.0746 |
| GATAAAAA | 0.188 |
| CCCGTCGA | -0.0973 |
| ACTATGGA | -0.23 |
| AAAGTGTC | -0.123 |
| AGGGGGGG | -0.414 |
| AGACTTTG | 0.0158 |
| ACTGCTAG | -0.119 |
| CCAAGGAA | -0.283 |

| Sequence | PBM E-score |
| --- | --- |
| GATCAGTA | 0.182 |
| AATTTTGA | 0.215 |
| ACGCCGGA | -0.0852 |
| ACGGAATA | -0.0004 |
| CCCGTCGC | -0.136 |
| AAACACCC | 0.0451 |
| ACGAAGAA | 0.238 |
| AGCCCGTA | -0.122 |
| ATGAGAGG | -0.313 |
| ATTCACAG | 0.0944 |
| AGAGCTTG | 0.0618 |
| GTACGATA | 0.0013 |
| GCCACTCC | -0.36 |
| AACGTTTA | 0.153 |
| CGTCATAA | 0.05 |
| AAACATGT | 0.445 |
| CCAACTGA | 0.0614 |
| AAATCCAC | 0.0936 |
| GTTGCACA | 0.0871 |
